Laboratory results: the RNAGym collection of RNA variant scans (doi:10.7554/elife.90254)
The source gives no read counts; variants with many changes may rest on few reads.

B1: LINE1-mini (parent)
chain: GGCAGAGCUCAACACAGCGUGGCAAAGUGGCUGUGGCUAGACUGCC

Variants of: B1
Assay: self-cleavage, relative activity (ratio to wild type); higher = more cleavage; in vitro, sequencing; the parent is a self-cleaving ribozyme

Row | Variant | self-cleavage
1 | GGCAGAGCUAAACACGGCGUGGCAAAGUGGAUGUGGCUAGACUGAC [C10A A16G C31A C45A] | 0.02
2 | GGCAGAGCUCUACACAGCGUGGAAAAGUGACUGUGGCUAGACUGCC [A11U C23A G30A] | 0.24
3 | GUCACAGCUCAACACAGCGUGGCAAAGUGGCGUUGGCUAGACUGCC [G2U G5C U32G G33U] | 0.01
4 | GGCAGAUCUUAACACCGCGUGGCAAAGUGGCUGUGGCUAGAAUGCC [G7U C10U A16C C42A] | 0.04
5 | GGCAGAGCUCAAUACAGCGUGGCAAAGUGGAUGUGGCUAGAGCGCC [C13U C31A C42G U43C] | 0.02
6 | GGAACAGCUCAACACAGCGUGGCAAAGUGGCUGUAGCUAGACUGCC [C3A G5C G35A] | 0.37
7 | GGCAGAGCUCAACACAGCGUUGCAAAGCGGCUGAGGCUAGUCUGCC [G21U U28C U34A A41U] | 0.14
8 | GGCAGAUCUCAACAUAGCGGGGCAACGUGGCAGUGGUUAGAGUGCC [G7U C15U U20G A26C U32A C37U C42G] | 0.05
9 | GGCAUAGCUCAACACUGCGUGGCAAAAUGGCUGUGGCUAGACUGCC [G5U A16U G27A] | 0.07
10 | GGCAAAGCUCAACAAAGCUUGGCAAAGUGGCUGUGGCUAGGCUGCC [G5A C15A G19U A41G] | 0.01
11 | GACAGACCUUAACACAGCGUGGCAAAGUGGCUGUGGCUAGACUGCC [G2A G7C C10U] | 0.07
12 | GGCAGAGGUCAACAUAGCGUGGCAAUGGGGCUGUGGCUAGACUGCC [C8G C15U A26U U28G] | 0.01
13 | GGCAUAGCGCAACACACCGUGGCUAAGUGGCUGUGGCUAGACUGCC [G5U U9G G17C A24U] | 0.07
14 | AGCAGAACUCAACACAGCGUGGCAAUGUGGCUGUGGCUAGACUGCC [G1A G7A A26U] | 0.43
15 | GGCAGAGCUCGACAAAGCGUAGCGAAGUGGCUGUGGCUAGACUGCC [A11G C15A G21A A24G] | 0.02
16 | GGCAGAGCUCAACACAUCGUGGCAAAGUUGCUGUGGCUCGACUGCC [G17U G29U A39C] | 0.03
17 | GGCAGAGCUCGACACAGCGAGGCAACGUGGCUGACGCUAGACUGCC [A11G U20A A26C U34A G35C] | 0.02
18 | GUAAGAGCUCAACACAUCGUGGCAAAGUGGCUGUGGCUAGACUGCC [G2U C3A G17U] | 0.07
19 | GGCAGAGCUCAACACAGCGUGGCAAAUUGGCUGUGAUAAGACUGCC [G27U G36A C37U U38A] | 0.02

Row | Variant | self-cleavage
20 | GGCAGAGCUCAACACACCGUGGCAAAGUGGCUGUGGCGAGACCGCC [G17C U38G U43C] | 0.01
21 | GGCAGGGCUCAACACAGCGUGGCAAAGUGGCUGAUGCUAGACUGCC [A6G U34A G35U] | 0.01
22 | GGGAGAGCUCAACAAAGCGUGGCAAAGUGGCUGUCGCUAGACUGCC [C3G C15A G35C] | 0.02
23 | GGUAGAGCUCAACACAUCGUGGCAAAGUGGCUGUGGCUAGACUACC [C3U G17U G44A] | 0.14
24 | GGCAGAGCACAACACAGCGUGGCAAAGUCGCUGUGACUAGACGGUC [U9A G29C G36A U43G C45U] | 0.05
25 | GGCAGAGCUCAACACCGCGAGGCCAAGUGGAUGUGGCGAGACUGCC [A16C U20A A24C C31A U38G] | 0
26 | GGCAGAGCACGACACAGCGUGGCGAAGUGGCUGUGGUUAGACUGCU [U9A A11G A24G C37U C46U] | 0.01
27 | GACAGAGCUAAACACAGCGUGGCAGAGUGCCUUUGGCUAGACUGCC [G2A C10A A25G G30C G33U] | 0.06
28 | GGCAGAGCUAAACACAGCGUAGCAAAGUGUCUGUUGCUAGACUGCC [C10A G21A G30U G35U] | 0.03
29 | GGGAGAGCUCUACACAGCGUGGCAAAGUGGCUGUGGCUAGACUGUU [C3G A11U C45U C46U] | 0.01
30 | GGCAGAGCUCAACACAGCUUGGCAAAGUGGCUGUGGAUAGGCUGCC [G19U C37A A41G] | 0.02
31 | GGCAGAGCUCAACACAGCGUGGCAAAGGGGCUGUGGCGAGAAUGCC [U28G U38G C42A] | 0.01
32 | GGCUGAGCUCAACACAGCGUGGCAAAAUGGCUGUGGCAAGGGUGCC [A4U G27A U38A A41G C42G] | 0.09
33 | GGAAGAGCUCAACACAGCGUGGCAAAGUGUAAGUGGCUAGACUGCC [C3A G30U C31A U32A] | 0.17
34 | GGCAGAGCUCAACACAGUGAGGCAACGUGGCUGUGGCUAGACUGCC [C18U U20A A26C] | 0.47
35 | GGCAGGGCUCAACACACCGUCGCCAAGUGGCUGUGGCUAGACUGCC [A6G G17C G21C A24C] | 0.09
36 | GGCAGAGCUCAACUCAAAGUGGCAAAGUGGCUGUGGCUAGACUCCC [A14U G17A C18A G44C] | 0.05
37 | GGCAGAGCUCAACACAGCGUGGUAAAGUGGCUGUGGCUAGACUUGC [C23U G44U C45G] | 0.08
38 | GGCAGAGCUCAAAACAGCGUGGCAAACUGGCUGAGGCUUGACUGCC [C13A G27C U34A A39U] | 0.02

Row | Variant | self-cleavage
39 | GGCAGAGCUCAAAACAGCGUGGCAAAAUGGCGGUGGCUAGAAUCCC [C13A G27A U32G C42A G44C] | 0.01
40 | GGCAGAGCUCAACACAGCGUGGCAAAGUGUCUGUAGCUACACUGCC [G30U G35A G40C] | 0.03
41 | UGCGGAGCUCAACACCGUGUGGCAAAGUCGCUGUCGCUAGACUGCC [G1U A4G A16C C18U G29C G35C] | 0.06
42 | GGCAGAGCUCAAGACAUCGUGGCAAAGUGGCUGUGGCUCGACUGCC [C13G G17U A39C] | 0.08
43 | GGCAGAGGUCAACACAGCGUGGCAAAGUGGCUAUCGCUAGACUGCC [C8G G33A G35C] | 0.06
44 | AGCCAAGCUCAACACAGCGUGGCAAAGUGGCUGUGGCUAGACUGCU [G1A A4C G5A C46U] | 0.07
45 | GGCAGAGAUCAACACAGCGUGGCAAAGGUGCUGUUGCUAGACUGCC [C8A U28G G29U G35U] | 0.32
46 | GUCAGAGCUCAACCCAGCGUGGCAAAAUGGCUGUCGCUAGACUGCC [G2U A14C G27A G35C] | 0.11
47 | GGCAGAGCUCAACACAGCGUGGCAAAGUGGCUGUCCCUAGACUGUC [G35C G36C C45U] | 0.03
48 | GGCAGAGGUCAACACGGCGUGGCAAAGUGGCUGUGGCUAAACUACC [C8G A16G G40A G44A] | 0.09
49 | GGCGGAGCUCAACACAGCUUGGCAAAGUGGCUGUGGCUAAACUGCC [A4G G19U G40A] | 0.08
50 | GGCAGGGCUCAACACAGCGUGGCAAAGGGGCUGUGGCUAGACUGCA [A6G U28G C46A] | 0.1
51 | GGCAGAUCUCAACACAGCGUGGCAAAGUGGCGGUGGCUAGACUCCG [G7U U32G G44C C46G] | 0.03
52 | GGUAGAGCUAAACACUGCGUGGCAAAGUGGCUGUGGCUAGACUGCC [C3U C10A A16U] | 0
53 | GACAGAGCUCACCCCACCGUGGCAAAGUGGCUGAGUCAAGACUGCC [G2A A12C A14C G17C U34A G36U U38A] | 0
54 | GGUAGAGCUAAACGCAGCGUGGCAAGGUGGCUGUGGCUUGACUGCC [C3U C10A A14G A26G A39U] | 0.01
55 | GGCAGAGCUCAACACAGCAAGGCAAAGUGGAUGUGGGUCGACUGCC [G19A U20A C31A C37G A39C] | 0.01
56 | GGCAGAGCUCAACACAGCGUGGCGAAGUUGCUGUGGCUAGAAUCCC [A24G G29U C42A G44C] | 0.09
